Experimental data published in PMC4336329 (PLoS ONE, 2015).
The campaign covered roughly 310,000 compounds. About 2,200 (0.71%) showed an effect of 50% or more. Effects have a minus sign here. The list shows a part of the results.

Molecular target: human ether-à-go-go-related gene (hERG) potassium channel (human, UniProt Q12809)
Assay: primary screen, population patch clamp on CHO cells stably expressing hERG

Chain of human ether-à-go-go-related gene (hERG) potassium channel (Q12809 whole entry, looked up): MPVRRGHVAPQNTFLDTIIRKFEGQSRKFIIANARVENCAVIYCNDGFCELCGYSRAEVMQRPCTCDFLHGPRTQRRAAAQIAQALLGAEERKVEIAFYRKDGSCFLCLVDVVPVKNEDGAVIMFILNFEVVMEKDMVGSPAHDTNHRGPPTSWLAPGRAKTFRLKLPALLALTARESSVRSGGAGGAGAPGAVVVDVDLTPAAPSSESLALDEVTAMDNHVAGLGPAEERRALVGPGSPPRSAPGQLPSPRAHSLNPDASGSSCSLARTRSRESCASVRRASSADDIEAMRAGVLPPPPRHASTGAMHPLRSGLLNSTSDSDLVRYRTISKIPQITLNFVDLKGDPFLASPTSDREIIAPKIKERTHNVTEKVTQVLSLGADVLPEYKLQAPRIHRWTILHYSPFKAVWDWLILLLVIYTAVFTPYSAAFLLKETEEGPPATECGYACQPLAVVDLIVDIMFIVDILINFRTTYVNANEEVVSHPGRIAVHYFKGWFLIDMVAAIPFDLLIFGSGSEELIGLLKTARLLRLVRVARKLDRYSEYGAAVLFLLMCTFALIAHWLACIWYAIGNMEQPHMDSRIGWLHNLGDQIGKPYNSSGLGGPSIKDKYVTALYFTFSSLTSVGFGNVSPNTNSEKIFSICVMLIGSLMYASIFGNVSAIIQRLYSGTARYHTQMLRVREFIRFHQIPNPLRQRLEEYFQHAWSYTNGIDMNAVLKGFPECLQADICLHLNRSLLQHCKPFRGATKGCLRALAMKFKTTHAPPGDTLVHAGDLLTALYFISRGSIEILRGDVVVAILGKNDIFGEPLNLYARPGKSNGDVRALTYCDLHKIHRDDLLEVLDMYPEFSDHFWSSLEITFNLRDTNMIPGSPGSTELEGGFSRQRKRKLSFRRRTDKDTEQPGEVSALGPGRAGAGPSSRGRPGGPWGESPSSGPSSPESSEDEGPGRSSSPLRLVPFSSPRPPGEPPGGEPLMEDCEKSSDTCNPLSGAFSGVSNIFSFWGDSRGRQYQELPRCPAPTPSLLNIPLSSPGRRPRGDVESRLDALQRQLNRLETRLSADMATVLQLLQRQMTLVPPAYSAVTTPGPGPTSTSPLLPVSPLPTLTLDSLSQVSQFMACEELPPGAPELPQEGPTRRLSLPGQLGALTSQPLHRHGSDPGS

Point of comparison: `CC(=O)Nc1ccc(NC(=O)C2CCCCN2S(=O)(=O)c2ccc(C(C)(C)C)cc2)cc1` (stereo not shown), “hERG current change (%, negative = inhibition) at 1uM” value 12.8%. Against it:
- COC(=O)Nc1ccc(S(=O)(=O)N2CCCCC2C(=O)NCc2ccco2)cc1 (stereo not shown) — the same, 12.8%
- CCOc1ccc(Br)cc1S(=O)(=O)Nc1ccc(C(=O)Nc2ccc(C)cc2)cc1 — lower, 4.22%
- CCCCNc1nc(CC)c2c(c1C#N)CCCC2 — higher, 13.8%
- COc1cc(CCC(=O)Nc2cc(C)cc(C)c2)cc(OC)c1OC — lower, 10.5%
- COc1ccc(OC)c(N2C(=O)CC(Cc3ccc(C)cc3)C2=O)c1 (stereo not shown) — lower, 12%
- COc1ccc(C2CC(c3ccc(C)cc3)Nc3ncnn32)cc1 (stereo not shown) — lower, -7.15%
- O=C(NCc1ccccc1)C1CCCN(c2cnccn2)C1 (stereo not shown) — lower, -4.4%
- O=C(Nc1ccc(Oc2ncnc3cc(Cl)ccc23)nc1)c1ccc(F)cc1 — lower, 9.13%
- COc1cc(C)nc(Oc2ccc(OCCOc3ccccc3)nn2)n1 — lower, 6.89%
- O=C(COC(=O)CNC(=O)c1ccccc1F)NCCNC(=O)COC(=O)CNC(=O)c1ccccc1F — higher, 15.7%
- Cc1cc(C)n(CC(O)COCc2ccco2)n1 (stereo not shown) — lower, 0.458%
- COc1ccc(NC(=O)C(=O)NCCN2CCN(C(=O)c3ccc(C(C)(C)C)cc3)CC2)cc1 — lower, 9.9%
- O=C(COC(=O)c1ccccc1)Nc1cc(S(=O)(=O)N2CCCCCC2)ccc1Cl — lower, 11.6%
- COc1cccc(-c2nnc(-c3ccc(C(F)(F)F)cc3)o2)c1 — lower, 4.96%
- Cn1nc(-c2ccccc2)cc1NC(=O)Nc1ccc(F)cc1 — higher, 16.4%
- CC(=O)N1c2ccc(S(=O)(=O)NCCc3ccc(S(N)(=O)=O)cc3)cc2CC1C (stereo not shown) — higher, 17.6%
- Cc1cc(C)c(C#N)c(SCc2ccc([N+](=O)[O-])cc2)n1 — higher, 13%
- CN1/C(=C\C=N\NC(=O)c2ccccc2Br)C(C)(C)c2ccccc21 — lower, 9.05%
- COc1ccc(Cl)cc1C(=O)O/N=C(\N)c1ccc(Cl)cc1 — lower, 1.24%
- O=C(Nc1ccccc1)OC1CCS(=O)(=O)C1 (stereo not shown) — higher, 13.2%
- Cc1ccc(S(=O)(=O)Nc2cccc(C(=O)N3CCOCC3)c2)c(C)c1NS(C)(=O)=O — higher, 19.5%
- CC(/C=N/NC(=O)c1ccc(Cn2cc([N+](=O)[O-])cn2)o1)=C\c1ccccc1 — lower, 4.13%
- Cc1ccc(S(=O)(=O)N2CCN(Cc3ccccc3)CC2)s1 — lower, 8.25%
- Cc1ccnc(NC(=O)c2cccc(S(=O)(=O)N3CCCC3)c2)c1 — lower, 9.19%
- Cc1cccc(-n2c(SCC(=O)NCc3ccco3)nc3ccccc3c2=O)c1 — lower, -9.79%
- Nc1c(Br)cc(Br)c(N2CCCC2=O)c1Br — lower, 6.06%
- CC(CCc1ccccc1)NC(=O)CCC(=O)N1CCC(C(=O)O)CC1 (stereo not shown) — higher, 16%
- CC(=O)c1cn(C)c(=O)n(C)c1=O — lower, 4.54%
- Cc1cc(N2C(=O)CC(C(C)c3ccccc3)C2=O)no1 (stereo not shown) — lower, 6.37%
- O=C(CCc1ccccc1)NCC1(c2ccccc2)CCCC1 — lower, 11.5%
- O=C(CSc1nccn1-c1ccc(Cl)cc1)NCc1ccc2c(c1)OCO2 — lower, -3.09%
- COc1ccccc1N1CCN(C(c2cccs2)C(C)NC(=O)c2cccnc2)CC1 (stereo not shown) — lower, -2.84%
- CC(=O)Nc1ccc(S(=O)(=O)C(C#N)c2nc3ccccc3nc2NCCCO)cc1 (stereo not shown) — lower, 0.636%
- Cl.O=C(NCC(c1cccs1)N1CCOCC1)c1cc2ccccc2o1 (stereo not shown) — lower, -1.18%
- COc1cc2c(cc1OC)CN(CC(=O)Nc1ccc(F)cc1)C(C(=O)O)C2 (stereo not shown) — the same, 12.8%
- COC(=O)[C@H](C)NC(=O)Nc1ccc(S(N)(=O)=O)cc1 — lower, 12.6%
- CCN(CC)CCN1C(=O)C(=O)/C(=C(/O)c2cnn(-c3ccccc3)c2C)C1c1cccnc1 (stereo not shown) — higher, 19.7%
- CC(C)OC(=O)c1ccc(NC(=O)c2cncc(Br)c2)cc1 — lower, -0.654%
- COc1ccc(S(=O)(=O)N(n2c(C)nnc2-n2nc(C)cc2C)S(=O)(=O)c2ccc(OC)cc2)cc1 — higher, 18.6%
- CCCCn1nnnc1NCc1cccnc1 — lower, 5.42%
- COC(=O)c1cc(S(=O)(=O)NC2CCN(Cc3ccccc3)CC2)cn1C — lower, 11.2%
- Cc1cc(C(=O)OCC(=O)NCc2ccc(F)cc2)c2ccccc2n1 — lower, 6.51%
- FC(F)(F)C(F)(F)c1nnc2ccc(-n3ccnc3)nn12 — lower, 3.17%
- CN(C)/C=C/C(=O)c1nn(-c2ccc(F)cc2)ccc1=O — lower, 10.8%
- COc1ccccc1NS(=O)(=O)c1cc(C(=O)NCC2CCCO2)ccc1C (stereo not shown) — lower, -6.88%
- COc1cccc(/C=C2\CCC(C3CCCC3)C2=O)c1OC (stereo not shown) — higher, 14.5%
- COc1ccc(N(C(=O)c2ccco2)C(C(=O)NC2CCCC2)c2ccc(N3CCOCC3)cc2)c(OC)c1 (stereo not shown) — lower, 0.946%
- CCOc1ccc(-n2c(=S)sc3c(=O)n(-c4ccccc4)c(SCC(=O)O)nc32)cc1 — lower, 12.2%
- Oc1ccccc1/C=N/n1cnn(Cc2ccccc2Cl)c1=S — lower, 10.8%
- C=CCNC(=O)c1onc(CSc2ccc(F)c(F)c2)c1C(=O)NCC=C — lower, 1.57%
- CC(C)c1nc2n[nH]c(N)c2c2c1CCCC2 — lower, 11.4%
- Cc1cc(=O)oc2cc(NC(=O)Cc3ccccc3)ccc12 — higher, 15.3%
- CSc1nc2ccc(NC(=O)c3ccc(=O)n(C)n3)cc2s1 — lower, 11.6%
- O=C(CCc1nc2sc3c(c2c(=O)[nH]1)CCCC3)NCCOc1ccccc1 — lower, -0.368%
- COCCNC(=O)CN(C(=O)CCC(=O)Nc1ccccn1)c1ccccc1OC — lower, 9.94%
- N#Cc1c(N)nc2c(c1-c1cccnc1)CCCCC2 — lower, -4.85%
- Cc1ccc(Sc2ncccc2COC(=O)Nc2ccccc2)cc1 — lower, 11.7%
- Cc1ccc(-n2c(O)c(C=NC3CCCC3)c(=O)[nH]c2=O)c(C)c1 — higher, 15.2%
- O=C(c1ccc(Cn2cnnn2)cc1)N1CCCC(Nc2ccc(F)cc2)C1 (stereo not shown) — lower, 3.86%
- CCc1ccc(N2C(=O)c3ccc4c5c(ccc(c35)C2=O)CC4)cc1 — lower, -1.11%
- COc1ccc(NC(=O)CSc2nnc(Cn3c(=O)sc4ccccc43)n2C)cc1 — lower, 0.985%
- COc1ccccc1S(=O)(=O)Cc1ccc(C(=O)NCc2cccnc2)o1 — lower, 6.11%
- O=C(NC(=S)Nc1ccccn1)c1ccccc1 — the same, 12.8%
- Cc1cccc(C(=O)Nc2ccc(C(=O)N/N=C/c3ccco3)cc2)c1 — lower, 7.52%
- Cc1cc(C(=O)NCC(=O)OCC(=O)Nc2ccc(OC(F)F)cc2)ccc1[N+](=O)[O-] — lower, -19.9%
- Br.COc1ccccc1N1CCN(CCCCN2C(=O)c3ccccc3C2=O)CC1 — lower, -26.7%
- C=CCNC(=O)C1CC(=O)N(c2ccc(OCc3ccccc3Cl)cc2)C1 (stereo not shown) — higher, 13.4%
- COc1ccc([N+](=O)[O-])cc1NS(=O)(=O)c1cccc(C(=O)O)c1 — higher, 13.8%
- COc1ccc(OC)c(NC(=O)Nc2cccnc2)c1 — higher, 13.6%
- FC(F)(F)c1ccnc(Oc2ccc(C3=NCCS3)cc2)c1 — higher, 13.4%
- O=C(CSc1nnc(-c2cccnc2)o1)Nc1cccc(Cl)c1 — higher, 14.4%
- Oc1ccc(N=Nc2ccc3ccccc3c2)cc1 — higher, 15.3%
- O=C1CCC(C(=O)N2CCN(c3ccccc3Cl)CC2)CN1CC1CCCCC1 (stereo not shown) — lower, 7.35%
- CC1CC(CC(=O)Nc2nc(-c3ccccc3)cs2)C(=O)O1 (stereo not shown) — higher, 16.1%
- [O-][n+]1c2c(c3c4non(O)c4ccc31)CCCC2 — lower, 12.6%
- Cc1ccc(S(=O)(=O)N2CCCC2C(=O)N2CCCCCC2)cc1 (stereo not shown) — lower, -7.28%
- Cc1ccc(C)c2sc(NC(=O)c3ccc(N4CCCCC4)c([N+](=O)[O-])c3)nc12 — lower, 12.4%
- COc1cc(CNC2CCCCCCC2)cc(Cl)c1OC.Cl — lower, 12.6%
- O=S(=O)(c1ccccc1)c1nc(-c2ccccc2)oc1N1CCCC1 — lower, 1.47%
- Cc1cnccc1CN(C)C(=O)CC1C(=O)NCCN1CC1CCCCC1 (stereo not shown) — lower, 4.81%
- CC(C)c1ccc2[nH]c3c(c2c1)CCCC3=O — lower, 6.51%
- COc1ccc(C(C(=O)NC(C)(C)C)N(CCO)C(=O)CCC(=O)Nc2cc(C)on2)cc1 (stereo not shown) — higher, 13.6%
- Cc1nnc(N2CCCC(C(=O)NCc3cccc(F)c3)C2)c2nn(-c3ccccc3)c(C)c12 (stereo not shown) — lower, -1.8%
- Cc1cc(NC(=O)CSc2nc3ccccc3c(=O)n2-c2ccccc2)no1 — lower, 4.19%
- Cc1ccccc1-n1c(=O)c2ccccc2n2cnnc12 — lower, -6.44%
- Cc1ccc(S(=O)(=O)N2CCC(C(=O)N3CCC[C@H]3C(=O)NCc3ccco3)CC2)cc1 — lower, -5.93%
- CCc1ccc(C(=O)NN=C2CCCCCC2)s1 — higher, 14.8%
